The list shows a part of the results.

Sequences and labels used below:
B1: chrX:71300841:71300885:+|3pUTR|ENSG00000147140|msi1_unk|FALSE|overlapping (ssRNA)
RNA: GGGAGUUCUACAGUCCGACGAUCCCCCAUAUAUUACCCCUUCAUGUCCUAAAGAAGACAUUUUCUCUUAGAGAUUUUCAUUUUAGUGUAUCUUUAAAAAAAAAUCUUGUGUUAACUUGCCUCCAUCUUUUUCUUGGGUGAGGACAACAGAGGAUUGAGCAUCA
B2: ENSG00000107863:be:win_2951|CDS|ENSG00000107863|bound_else_gene|NA|bound_elsewhere_windowed (ssRNA)
RNA: GGGAGUUCUACAGUCCGACGAUCAGGAAGAGCAGCCCAUCAGUGUUAAUGCUUGCUUGAUAGACAUCUCUUACAGUGAGACCAAGAGGAAAAAUGUGUUUCGACUCACCACGUCCGACUGUGAAUGCCUGUUUCAGGCUGAAGCAACAGAGGAUUGAGCAUCA
B3: ENSG00000070961:be:win_4851|3pUTR|ENSG00000070961|bound_else_gene|NA|bound_elsewhere_windowed (ssRNA)
RNA: GGGAGUUCUACAGUCCGACGAUCCAAUGUUUUUUUAAAAGACAUUUCAGCUUCUUUACUCAGUUCUGCAUAUACAGUGCAUCAGUCUGUUCUCUUUGACCACAAUUGGAAUACAUUUCAAGAUGGUAACAGCCCCAUGAAGUACAACAGAGGAUUGAGCAUCA
B4: chr7:137014887:137014989:+|CDS|ENSG00000181072|unk|FALSE|unique (ssRNA)
RNA: GGGAGUUCUACAGUCCGACGAUCGCUACUUGGCUACUGAUUAGAGAACGCAAAAUGAAUAACUCAACAAACUCCUCUAACAAUAGCCUGGCUCUUACAAGUCCUUAUAAGACAUUUGAAGUGGUGUUUAUUGUCCUGGUGGCUCAACAGAGGAUUGAGCAUCA
B5: chr4:110049619:110049852:-|3pUTR|ENSG00000170522|msi1|total|mutant (ssRNA)
RNA: GGGAGUUCUACAGUCCGACGAUCUUGUUCAAUGUGACAUAACCGUAUUAUAAUUGGUUAAGCCGCUUAAUGAUCCGGCAAACCCGAUGAAAAGAUCCGGGGCUUCCACACUGCACCGAUUACACGCACACCGCCACGCAUACACAACAGAGGAUUGAGCAUCA
B6: chr17:80295660:80295761:+|CDS|ENSG00000173821|msi1|total|mutant (ssRNA)
RNA: GGGAGUUCUACAGUCCGACGAUCGAGUAAACUGAAAACAGGCCUGAUUGUCCUUUUUGCCGUGGAAAAAAUUGAGCUUUUAUCCGAAGGCAGCCUGGACUGGUUGUGUCACCUCCUAACCUCAGAUGCCAGCUCACCAGAUGACAACAGAGGAUUGAGCAUCA
B7: chr2:158176520:158176661:-|CDS|ENSG00000153237|control|control|control (ssRNA)
RNA: GGGAGUUCUACAGUCCGACGAUCGCUGUUGUUGCUCAAUUUGAUCCUGUUAGAAUGAUGUCAGAUACAAUGGCAUCAAAAGCUAGAAUGGGCAUUGAAAUUGAAGAAGAAUUUAUUCUUCAAAAGCCACUCUUCACAUUGAAUCAACAGAGGAUUGAGCAUCA
B8: chr4:70689993:70690094:+|CDS|ENSG00000132467|unk|FALSE|unique (ssRNA)
RNA: GGGAGUUCUACAGUCCGACGAUCAGAGCCAAAAUUAGAAGAAGAGGCCAGGUUCGUGAAGUUCGUAAAGAAGAGCAACGUUAUAGUGGUGAAUUAUCUGGCAUUCGUGCAGGAGUUAAAAAGAGCAUUAAGCUUAAAUGAAGUCAACAGAGGAUUGAGCAUCA
B9: chr7:101137743:101137929:+|3pUTR|ENSG00000106366|msi1|total|mutant (ssRNA)
RNA: GGGAGUUCUACAGUCCGACGAUCCCACUGAGGCCCUUUGCAGGAUGGAACUACGGGGCUUACAGGAGCUUUUGUGUGCCUGGCCGAAACUAUUUCUGUUCCAGUCACAUUGCCAUCACUCUUGUACUGCCUGCCACCGCGGAGCAACAGAGGAUUGAGCAUCA
B10: chr5:56893553:56893673:+|CDS|ENSG00000095015|unk|total|mutant (ssRNA)
RNA: GGGAGUUCUACAGUCCGACGAUCUGCUCCAUCGAUCCCUUCACAUUUGUCUCCUGGUUUACGAGAUGUGGCUCUUCGUUGUUCCGAACUUCAACCUCAGGACAGACCUCCAUCAAGAGAGCUACUGAAGCAUCCAGUCUUUCGCAACAGAGGAUUGAGCAUCA
B11: chr2:1633339:1633490:-|3pUTR|ENSG00000130508|msi1|total|mutant (ssRNA)
RNA: GGGAGUUCUACAGUCCGACGAUCUUCAUAAGCCACAUUCCGAAACAGGUUUGCUUUCAGCUGUCACUUGCACACAUACUGCCCCGUUGUGAACCAAAUGUGAAAAAACCUCCUUCAUCCCAUUGUGUAUCUGAUACCUGCCGACAACAGAGGAUUGAGCAUCA
B12: chr2:135840511:135840612:-|3pUTR|ENSG00000076003|msi1|total|mutant (ssRNA)
RNA: GGGAGUUCUACAGUCCGACGAUCGCUUCAGCACUUCCUUUGGUGUGUUUCCUGUCCCAGUGAAGUUGGAACCAAAUAAUGUGCCGUCUCUAUAACCAAUACCUUUGUUUUCAUGUGUAAGAAAAGGCCCAUUACUUUUAAGGUCAACAGAGGAUUGAGCAUCA
B13: chr2:147927148:147927248:+|CDS|ENSG00000121989|msi1_unk|FALSE|overlapping (ssRNA)
RNA: GGGAGUUCUACAGUCCGACGAUCUGAAACCAUUGAAGAAUGUUGGGAUCACGACGCAGAAGCCAGGUUAUCAGCUGGAUGUGUAGGUGAAAGAAUUACCCAGAUGCAGAGACUAACAAAUAUUAUUACCACAGAGGACAUUGUCAACAGAGGAUUGAGCAUCA
B14: chr1:61462620:61462721:+|3pUTR|ENSG00000162599|unk|total|mutant (ssRNA)
RNA: GGGAGUUCUACAGUCCGACGAUCCUGUGGGCGUCCAUUCUUAUUCAACUAAAUCUCCACAGGUUUUUUGAGCUGGUGUGGAUCCGUUUAACUCUUGUAUUCAACCAUCCGUGCUACCACCUUCUCACAUUACAAUACAAUUACCAACAGAGGAUUGAGCAUCA
B15: chr12:110551788:110551968:-|CDS|ENSG00000196850|control|control|control (ssRNA)
RNA: GGGAGUUCUACAGUCCGACGAUCUUCUCAGGGACUUUAAUGCGGACGUGUGAACGUUUAGUAAAAGAAGGACGGUUCGUACCUAGUAAUCCCAUUGGAAUUCUCACCACAAGCUACUGUGAGUUGCUGCAAAAUAAAGUCCCUCAACAGAGGAUUGAGCAUCA
B16: ENSG00000198589:be:win_1401|CDS|ENSG00000198589|bound_else_gene|NA|bound_elsewhere_windowed (ssRNA)
RNA: GGGAGUUCUACAGUCCGACGAUCGCAUUCAAUUGGAGGAGUACAAGUACUAUUUCCACUUUUUGCACAGUUGGAUUACAGGCAAUAUUUGUCUGAUGAGAUUGAUUUGACUAUAUGUUCAACCUUGCUGGCCUUUAUCAUGGACAACAGAGGAUUGAGCAUCA
B17: chr7:115017934:115018035:+|3pUTR|ENSG00000135272|unk|FALSE|unique (ssRNA)
RNA: GGGAGUUCUACAGUCCGACGAUCUGAGAUGAAACGUAGUUUCUAGUUAUAUCAUUACUUAAAGGGCUUAAAAAGAAAAAACUUAGCAAACUUUUGAAUCUUUCUUUUAUUGCUAUUUACACAUACAUACACACAUACAAAACCCAACAGAGGAUUGAGCAUCA
B18: chr12:20680103:20680206:+|CDS|ENSG00000172572|unk|total|mutant (ssRNA)
RNA: GGGAGUUCUACAGUCCGACGAUCCUUACAGAACCACAAGAUGUGGAAGAAAGUCAUUGAAGAGGAGCAACGGUUGGCAGGCACCGAAAAUCAAUCCCUGGACCAGACCCCUCAGUCGCACUCUUCAGAACAGAUCCAGGCUAUCAACAGAGGAUUGAGCAUCA
B19: chr7:124031896:124032004:-|CDS|ENSG00000234224|unk|total|mutant (ssRNA)
RNA: GGGAGUUCUACAGUCCGACGAUCUACCCGCUCAAUUUUAUGGGCCUCAUCACCCUGAUGUAUUUACCUGGCUGGAUAUUCCUCCGUGUGUACCAGGACCUAAUUUCCAACGUGUUGUGGAGGGUGCAGUACGUACCAGCUAACCAACAGAGGAUUGAGCAUCA
B20: chr19:10133403:10133440:-|3pUTR|ENSG00000130816|msi1_unk|FALSE|overlapping (ssRNA)
RNA: GGGAGUUCUACAGUCCGACGAUCUUUUUUAUUAUGCAUUAUAUCAAAUCUACCACUGUAUGAGUGGAAAUUAAGACUUUAUGUAGUUUUUAUAUGUUGUAAUAUUUCUUCAAAUAAAUCUCUCCUAUAAACCACCCUGGGUGGCAACAGAGGAUUGAGCAUCA
B21: chr10:89213657:89213758:-|3pUTR|ENSG00000107798|msi1|total|mutant (ssRNA)
RNA: GGGAGUUCUACAGUCCGACGAUCUUACAAUACUGUCCGGUGGACAAAAUGACAAUUGAUAUGUUUUUCUGAUAUAAUUACUUCCGCUGCACUAACAGUACAAUGCUUGUUAAUGGUUAAUACCGGCAGGGCGAAUACUACUUUCAACAGAGGAUUGAGCAUCA
B22: chr9:127749210:127749665:-|CDS|ENSG00000095370|control|control|control (ssRNA)
RNA: GGGAGUUCUACAGUCCGACGAUCUUCCCACUGCGCUACCUCGAGGCCAGCUAUGGCCUGGGACAGGGGAGUAGCAAGCCUGCUAGCCCCGUCAGCCCCUCAGGCCCCAAGGGCAGCCACAUGAAGCGGCGCAGCGUCACCAUGCAACAGAGGAUUGAGCAUCA

This assay has as its target MSI1 full-length (mouse, UniProt Q61474 1-362). Description: nsRBNS (natural sequence RNA bind-n-seq); RBNS binding buffer (assumed for nsRBNS): 25 mM Tris pH 7.5, 150 mM KCl, 3 mM MgCl2, 0.01% Triton X-100, 500 ug/ml BSA, 20 U/ml SUPERase-In, 4 C; UNK is unkempt and MSI1 is Musashi-1; names of the RNAs are library labels; protein concentration not given here; high values mean tight binding.
Chain of UniProt Q61474 (Q61474 whole entry): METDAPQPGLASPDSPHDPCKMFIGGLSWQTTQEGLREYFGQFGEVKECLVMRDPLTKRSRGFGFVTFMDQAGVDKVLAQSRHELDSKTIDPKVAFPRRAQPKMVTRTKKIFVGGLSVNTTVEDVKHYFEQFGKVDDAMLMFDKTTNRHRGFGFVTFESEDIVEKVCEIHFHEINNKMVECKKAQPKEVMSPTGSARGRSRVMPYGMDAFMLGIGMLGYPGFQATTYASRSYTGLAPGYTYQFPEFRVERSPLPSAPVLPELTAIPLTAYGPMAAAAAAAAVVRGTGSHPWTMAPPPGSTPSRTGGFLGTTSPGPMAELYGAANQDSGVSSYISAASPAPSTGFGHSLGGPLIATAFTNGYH
Consider B1, for which the binding signal is 16.5 enrichment R.
B2: the binding signal came out at 0.444 enrichment R.
The result for B3 reads 0.446 enrichment R; that for B4, 0.188 enrichment R.
For B5, the binding signal came to 0.468 enrichment R.
Under B6 stands 0.355 enrichment R; under B7, 0.406 enrichment R; under B8, 12.4 enrichment R.
For the molecule B9, the binding signal amounted to 0.331 enrichment R.
Under B10 stands 0.405 enrichment R; under B11, 0.388 enrichment R.
Regarding B12, the binding signal is 0.29 enrichment R.
Under B13 stands 1.1 enrichment R.
Under B14 stands 0.557 enrichment R; under B15, 0.701 enrichment R.
Regarding B16, the binding signal came out at 0.204 enrichment R.
The result for B17 reads 14.7 enrichment R.
For the molecule B18, the binding signal worked out at 0.465 enrichment R.
Turning to B19, the binding signal was determined as 0.457 enrichment R.
Molecule B20 gave a binding signal of 3.88 enrichment R.
Under B21 stands 0.363 enrichment R; under B22, 0.421 enrichment R.
